Measurements taken from the antibiotic and cytotoxicity screens of Wong et al. (2023).
This is one part of the list.

Each compound was assayed on HSkMC (human skeletal muscle cells) (assay: cytotoxicity call (relative viability < 0.9)). Conditions: 10 µM.

Structure (SMILES) | cytotoxicity call
C[C@H]1CCCCO[C@H](CN(C)Cc2ccc3c(c2)OCO3)[C@@H](C)CN([C@@H](C)CO)C(=O)c2cc(NC(=O)Nc3ccc(F)cc3)ccc2O1 | inactive
O=C(C[C@@H]1C[C@@H]2c3cc(NS(=O)(=O)c4ccc(F)cc4)ccc3O[C@@H]2[C@H](CO)O1)NCc1cccc(F)c1 | inactive
C[C@H](CO)N1C[C@H](C)[C@H](CN(C)Cc2ccc(C(=O)Nc3ccccc3N)cc2)Oc2ccc(NC(=O)NC3CCCCC3)cc2C1=O | inactive
O=C(CCCCCNC(=O)OCc1ccc([C@H]2[C@H](C(=O)NCc3ccccc3)c3ccccc3C(=O)N2Cc2ccccc2)cc1)NO | inactive
C[C@@H]1CN([C@H](C)CO)C(=O)c2cccc(NC(=O)NC3CCCCC3)c2O[C@H]1CN(C)C(=O)Nc1cccc2ccccc12 | inactive
CCC1(O)CC2CN(CCc3c([nH]c4ccccc34)C(C(=O)OC)(c3cc4c(cc3OC)N(C=O)C3C(O)(C(=O)OC)C(OC(C)=O)C5(CC)C=CCN6CCC43C65)C2)C1.O=S(=O)(O)O (stereo not given) | inactive
C[C@H]1CCCCO[C@@H](CN(C)Cc2ccncc2)[C@@H](C)CN([C@@H](C)CO)C(=O)c2cc(NC(=O)NC3CCCCC3)ccc2O1 | inactive
COc1ccc(NC(=O)Nc2ccc3c(c2)[C@@H]2C[C@@H](CC(=O)NCc4ccccn4)O[C@@H](CO)[C@@H]2O3)cc1 | inactive
C[C@@H]1CN([C@@H](C)CO)C(=O)c2cccc(NC(=O)C3CCCCC3)c2O[C@H]1CN(C)C(=O)Nc1cccc2ccccc12 | inactive
CSC1=N[C@@]2(C)CCCC[C@@H]2c2c1ccc1ccccc21 | inactive
